Test results as given in patent US20230338510A1, “NOVEL C[…] EPITOPE P[…] AND USE THEREOF” (SHANGHAI INSTITUTE OF MATERIA MEDICA, CHINESE ACADEMY OF …, priority 2020, published 2023).

Test system: binding of RBD to ACE2
Assay: competitive ELISA: ability of antiserum to block the binding of RBD and ACE2
Settings: antiserum of immunized cynomolgus monkeys; FIG. 9
Description: The neutralizing antibody was detected by competitive ELISA method, and the specific determination method is as follows: an ELISA plate was coated overnight with 10 µg/mL ACE2, and then blocked for use. The anti-peptide serum was diluted in different degrees with sample dilution buffer (1:128, 1:64, 1:32, 1:16, 1:8, and 1:4), then the diluted anti-serum in different degrees were incubated with Bio-RBD of 12 µg/mL at 37° C. for 1 hour. Then 100 µL of the reaction mixture was added into the wells of the blocked ACE2-coated ELISA plate, and incubated at 37° C. for 1 hour. Then the plate was washed, and HRP-Streptavidin A diluted in 1:10000 was added and incubated at 37° C. for 1 hour. After washing the plate, TMB was added for color development, and the plate was read at 450 nm wavelength after termination.

Sequence: AKFVAAWTLKAAAGGGGYGFQPTNGVGYQPGGGGNYLYRLFRKSNLKPF [LP2]
- ability of antiserum to block the binding of RBD to ACE2: has the ability to block the binding of RBD to ACE2
